Laboratory results from paper PMC12040169 (PLOS Biology, 2025).
The other results are listed elsewhere or left out.

System: T1, C. trachomatis L2/434/Bu expressing GFP (CTL2-GFP)
T1 construct: L2/434/Bu GFP intracellular growth in HeLa cells
Set-up: species or system HeLa; C. trachomatis total inclusion area by high-content imaging, normalised to DMSO
Conditions: total inclusion area; 28.5 h, 10 µM; inhibitor
In short: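 Bulk GFP and resorufin signals were read first. Wells were then fixed, stained with Hoechst and imaged to detect GFP inclusions and host nuclei. MICs followed the previously described calculation.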

Row | Structure (SMILES) | % of control remaining
1 | COCCC(=O)NC(Cc1ccsc1)c1nc(C)c(C)s1 (stereo not drawn) [CBK284774] | 127.492
2 | CN(C)CCN(C)c1nc(-c2ccc(C(=O)O)cc2)cn2ccnc12 [CBK037880] | 110.617
3 | N#Cc1sc(NC(=O)c2cccc(Br)c2)nc1Cl [CBK017468] | 2.217
4 | COc1ccc(Cn2nc3nnc(-c4ccccc4)c(-c4ccccc4)n3c2=O)cc1 [CBK286180] | 119.423
5 | CC(=O)Nc1ccc(Nc2ccc([N+](=O)[O-])cc2[N+](=O)[O-])cc1 [CBK260886] | 91.3937
6 | CC(C)(C)CC(=O)N1CCCC1c1n[nH]cc1-c1ccncc1 (stereo not drawn) [CBK283430] | 78.3309
7 | O=C(c1ccno1)n1nccc1-c1cc(-c2ccccc2)no1 [CBK022074] | 93.5512
8 | CC(=O)Nc1ccccc1-c1nc2ccccc2nc1OCC(=O)c1ccc(Cl)cc1 [CBK266269] | 122.803
9 | Cc1nc2cc(OCc3nc(C(=O)N(CCO)CCO)co3)ccc2s1 [CBK307684] | 51.7663
10 | CCCCCN1CCn2nc(CNc3cnccn3)cc2C1 [CBK306713] | 91.9545
11 | COc1ccc(CN2CCN(C(=O)c3ccccc3F)CC2)c(OC)c1 [CBK033601] | 102.794
12 | CC(=O)Nc1ccc(C(=O)NCc2ccc(OCC(F)(F)F)cc2)cc1 [CBK305732] | 97.5336
13 | Cc1cc(C)c2nc(NC(=O)c3ccc(=O)n(CC(=O)N(C)c4ccccc4)c3)sc2c1 [CBK286025] | 86.2323
14 | CC(C)C(=O)N1CCC(n2c(=O)oc3ccc(Cl)cc32)CC1 [CBK284339] | 61.9891
15 | Cc1cc2cc(C(=O)NCC3(N(C)C)CCN(C)CC3)ccc2o1 [CBK282623] | 72.875
16 | Cc1ccc(CCP(=O)(O)CN2CCOCC2)cn1 [CBK022176] | 110.556
17 | Cc1cn(CC(=O)N2CCCC3(CCN(C(=O)c4ccoc4)C3)C2)c(=O)[nH]c1=O (stereo not drawn) [CBK131634] | 79.7243
18 | Cn1ccnc1C1(O)CCN(C(=O)c2cc(F)cc(F)c2)CC1 [CBK283544] | 71.9298
19 | Cc1ccc(-c2noc([C@@H]3Cc4[nH]cnc4CN3C(=O)CCC(=O)O)n2)cc1 [CBK288958] | 105.708
20 | COc1ccc(S(=O)(=O)N(C)CC(=O)N2CCOCC2)cc1C [CBK267898] | 102.981
21 | O=C(O)CCc1ccc(S(=O)(=O)Nc2ccccc2Cc2ccccc2)cc1 [CBK295616] | 105.12
22 | Cc1nn(C)c(C)c1CCC(=O)NCC1CCN(c2ccccc2F)C1 (stereo not drawn) [CBK304357] | 94.2438
23 | Oc1c(C(Nc2cccnc2)c2cccs2)ccc2cccnc12 (stereo not drawn) [CBK268637] | 24.8575
24 | CC(=O)N1CCC(C(=O)NC(=O)Nc2ccccc2F)CC1 [CBK034848] | 81.0654
25 | CCN(CC)CCN1CCN(c2cc(-c3ccc4c(c3)OCO4)ncn2)CC1 [CBK037694] | 99.5818
26 | c1cnc(OC2CCN(CC3CCCCC3)CC2)c(OCCN2CCOCC2)n1 [CBK082941T] | 90.738

Row | Structure (SMILES) | % of control remaining
27 | COc1ccc(-c2cc(C(=O)Nc3nccs3)cnc2-c2ccc(Cl)cc2)cc1 [CBK037553] | 145.493
28 | O=C1CNC(=O)C2(C/C=C/C[C@H]3COCC[C@@H]3N1)CCN(C(=O)CCc1cccnc1)CC2 [CBK292051] | 103.345
29 | C[C@@H]1[C@H](c2ccccc2)OC(=O)N1C1CCN(S(=O)(=O)c2cccs2)CC1 [CBK043302] | 95.1596
30 | CC(CN1CCCC1)NC(=O)c1ccc2c(c1)ncn2C (stereo not drawn) [CBK281715] | 88.6307
31 | COc1ccc([C@@]23CC[C@@H](Nc4nc(-c5ccc(Br)cc5)cs4)C[C@@H]2N(C)CC3)cc1OC [CBK036543] | 15.0916
32 | CC(C)[C@@H](CO)Nc1cncc(-c2cccc(CO)c2)n1 [CBK065427] | 115.811
33 | CNC(=O)c1cc(S(=O)(=O)N(C2CC2)C2CCc3ccccc32)cn1C (stereo not drawn) [CBK305988] | 7.013
34 | O=C(O)C1CSC(c2ccc([N+](=O)[O-])cc2)N1 (stereo not drawn) [CBK260909] | 94.4334
35 | COc1cncc(-c2cncc(Nc3ccccc3)n2)c1 [CBK065435] | 97.689
36 | CC1CC1c1nnc(C2(c3ccc(Br)cc3)CCOCC2)o1 (stereo not drawn) [CBK304712] | 65.163
37 | COc1ccc(F)cc1-c1ccc(CC2(C(=O)NCc3cccs3)CCOCC2)cc1 [CBK285540] | 80.686
38 | Cn1nc2n(C)c(=O)c3ccc(C(=O)NC4CCCC4)cc3n2c1=O [CBK287811] | 87.2368
39 | Nc1ncc(-c2ccc(C(F)(F)F)cc2)c(C2CCCN(C(=O)C3CCCCC3)C2)n1 (stereo not drawn) [CBK285791] | 98.3948
40 | O=C(Nc1c(F)cccc1F)N(Cc1ccc2ccccc2c1)CC1CCNCC1 [CBK119480] | 98.8537
41 | O=C(NNC(=O)C1CCN(S(=O)(=O)c2ccc(Br)cc2)CC1)NC12CC3CC(CC(C3)C1)C2 [CBK266907] | 102.634
42 | N=C(N)NC(=N)Nc1ccc2c(c1)OCCO2 [CBK021572C] | 113.219
43 | Nc1ncc(-c2ccccc2O)nc1-c1ccc(O)cc1 [CBK115548] | 121.554
44 | Cc1ccc(CNC(=O)C2CCN(S(=O)(=O)N3CCOCC3)CC2)cc1 [CBK294467] | 94.4048
45 | O=C(CCC(=O)c1ccccc1)Nc1cc2ccccc2c(N2CCNCC2)n1 [CBK028418T] | 95.3076
46 | Cn1c(=O)n(C)c2cc(CNc3nn[nH]n3)ccc21 [CBK270243] | 88.7875
47 | CCOc1ccc2c(c1)cc(C(=O)N(C)CC(F)(F)F)n2C [CBK281509] | 104.473
48 | C=CCOc1ccc(-c2nc3s/c(=C4\C(=O)N(Cc5ccccc5F)c5ccccc54)c(=O)n3n2)cc1 [CBK266615] | 96.9245
49 | O=C(Nc1cccc2nsnc12)c1ccc(-c2ccc(Br)cc2)o1 [CBK263752] | 80.7056
50 | CN(c1ccc(C(O)(C(F)(F)F)C(F)(F)F)cc1)S(=O)(=O)c1cccs1 [CBK067061] | 91.714
51 | CC(=O)NC[C@H]1CN(c2ccc(C#N)c(C)c2)C(=O)O1 [CBK010393] | 39.062
52 | O=C(NCCc1ccc(F)cc1)C1CN(C(=O)c2ccc3nsnc3c2)C1 [CBK285690] | 114.792

Row | Structure (SMILES) | % of control remaining
53 | C[C@H](C(=O)N1CCCC1)C1CC[C@@]2(C)Cc3sc(NC(=O)C4CC4)nc3[C@@H](C)[C@@H]2[C@H]1O (stereo partly drawn) [CBK289432] | 105.99
54 | OC(CNc1nccnc1-c1ccsc1)COc1ccccc1 (stereo not drawn) [CBK037057] | 94.1154
55 | COc1ccc(CNC(=O)C2CCCN(c3nc4c(-c5ccc(C)cc5)csc4c(=O)[nH]3)C2)cc1 (stereo not drawn) [CBK215530] | 87.3238
56 | c1cnn(CC2CCCN2c2ncnc3sccc23)c1 (stereo not drawn) [CBK304968] | 49.0452
57 | CCCCNc1nnc(-c2cc(C)nn2C)s1 [CBK288019] | 97.1777
58 | Cc1cc(NCC2(CO)CCOCC2)nc(N2CCCC2)n1 [CBK307005] | 35.6097
59 | O=c1c2ccccc2c(-c2ccc(Cl)cc2)nn1-c1cc(N2CCNCC2)ccc1[N+](=O)[O-] [CBK265763] | 112.316
60 | COc1cc(-c2nc(-c3ccc(Cl)cc3)c(-c3ccccc3)[nH]2)c([N+](=O)[O-])cc1OC [CBK264503] | 102.985
61 | CCc1nc2ccccc2c(NC(=O)CN2CCCCCC2)c1C [CBK261580G] | 97.0253
62 | COc1ccc([C@@]23CC[C@H](NC(=O)Nc4ccc(F)c(F)c4)C[C@@H]2N(Cc2ccccc2)CC3)cc1OC [CBK041333T] | 39.9104
63 | O=C(NCCC1SC(NC2CC3C=CC2C3)=NC1=O)c1ccccc1Cl (stereo not drawn) [CBK200062] | 84.2435
64 | NC(=O)NC(Cc1c[nH]c2ccccc12)C(=O)O (stereo not drawn) [CBK218895] | 114.887
65 | COc1ccc(NC(=O)Nc2ccccc2C(N)=O)cc1OC [CBK267061] | 118.207
66 | C=CCC1c2cccc(C(=O)O)c2C(=O)N1c1ccc(F)cc1 (stereo not drawn) [CBK113158] | 89.8179
67 | CCOC(=O)N1CCN(C(C(=O)O)c2c[nH]c3ccc(C)cc23)CC1 (stereo not drawn) [CBK286632] | 90.0962
68 | CN(C)Cc1cc(-c2ccc(CNC(=O)C3CC3)cc2)nn1C [CBK283470] | 80.3218
69 | N#Cc1c(F)cccc1NCc1cccnc1 [CBK057053] | 76.5475
70 | O=C(CN1CCN(C(c2ccccc2)c2ccccc2)CC1)Nc1c2c(nc3ccccc13)CCC2 [CBK278299G] | 115.515
71 | CSCCC(NC(=O)C1CCC(C)CC1)C(=O)O (stereo not drawn) [CBK286552] | 86.9978
72 | O=C(O)c1nnn(-c2ccccc2)c1-c1ccncc1 [CBK288041] | 89.1076
73 | CN(Cc1nc(-c2ccccc2)no1)C(=O)C1CC2(CCNCC2)CN1 (stereo not drawn) [CBK306585] | 89.2397
74 | CN(C)C(CNC(=O)Nc1cccc(C(=O)NC2CC2)c1)c1cccs1 (stereo not drawn) [CBK305565] | 54.4962
75 | CC(C)Nc1nccnc1Sc1cccs1 [CBK089490] | 99.3143
76 | CCCC/C=C/c1cnc(N)c(-c2cccc(N)c2)n1 [CBK063954] | 126.307
77 | CC(C)(C)C1=CC2=NC3(CCC3)C3C[C@@H](O)[C@@H](O)[C@]3(COCc3ccccc3)N2O1 (stereo partly drawn) [CBK303260] | 91.4182
78 | Cc1cccc(C)c1NC(=O)CN1CCCN(c2cc(OCCN3C(=O)CCC3=O)ncn2)CC1 [CBK083313T] | 109.501
